Here are results for 22 molecules from paper PMC12136788.

T1: UNK ZnF1-3 (human, UniProt Q9C0B0 31-174)
T1 sequence: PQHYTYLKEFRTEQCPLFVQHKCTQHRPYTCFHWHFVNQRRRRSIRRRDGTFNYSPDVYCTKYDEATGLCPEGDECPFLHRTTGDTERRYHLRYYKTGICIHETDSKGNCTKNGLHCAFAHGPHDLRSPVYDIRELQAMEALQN

B1: chr16:10423590:10423591:+_ENSMUSG00000022503_ENSMUST00000023146|mus_mus|FALSE|FALSE (ssRNA)
RNA: GGGAGUUCUACAGUCCGACGAUCUGGGAGUCCUGUGACUCAGAGAGUUCCUAGUCCCUUGGAUUCCAGGAAGCAGGCCCUAAGGGAUAGGUUCAAGGAGACAUUUUUAUUUUCUGAUGAAUGGCACCUGGAUGCAGAGCGCCCCAACAGAGGAUUGAGCAUCA
B2: chr16:13835293:13835294:+_ENSMUSG00000022681_ENSMUST00000136618|mus_hu|FALSE|FALSE (ssRNA)
RNA: GGGAGUUCUACAGUCCGACGAUCAGAAAACAGUGUGUGAGCUGGAGAUGGGUGUUUUUUUAAAAACAUCAAGGUAGAUCUAAUAUGUUCAACAAAGUGGGGUGGCUCAGCCAGAGGCGAAGUGGAAAGAUUCUCUAGUAUUUGCAACAGAGGAUUGAGCAUCA
B3: chr11:100882373:100882374:+_ENSMUSG00000019302_ENSMUST00000044721|mus_mus|mus_mus_mus_hu_True|28_108 (ssRNA)
RNA: GGGAGUUCUACAGUCCGACGAUCUUCCUGGUUAGUGUUGAUUUCCUUCAGUUCAUUUUCAAUCUUCUCAAAAUUGGCCUCUAAGUCAAUCAUGUCCCGGGGGAAGGGCACCUCUGGGUUUUCACCGGUGUCCAUAAUCGGAAUCAACAGAGGAUUGAGCAUCA
B4: chr18:35732517:35732518:+_ENSMUSG00000037236_ENSMUST00000166793|mus_mus|FALSE|FALSE (ssRNA)
RNA: GGGAGUUCUACAGUCCGACGAUCUAUAGAGCACAGAUGGGGAUAACCCUUCGGUAAGAGUCCAUGGAAGUCUUCAAUAUUGCUACUUGGAGGAGCGCCCCUCUUUUUCUCAAAGAGAGAUCUCUCUUGUAAGGGGCCAGGACCCAACAGAGGAUUGAGCAUCA
B5: chr2:9724522:9724523:-_ENSG00000134308_ENST00000238081|hu_mus|FALSE|FALSE (ssRNA)
RNA: GGGAGUUCUACAGUCCGACGAUCUUUUUUGGGACUACAGUCAAUGAUUAGCAAACACACAAUAUAGUGGUCCAACUCUCUAAAGAACAAUCACUGGACAAACCGGAUACCCUCUCCCAUGUGCACAACUCUGCAUGGAAAAGUCAACAGAGGAUUGAGCAUCA
B6: chr1:220276048:220276049:+_ENSG00000067704_ENST00000302637|hu_hu|hu_hu_hu_mus_True|58_98 (ssRNA)
RNA: GGGAGUUCUACAGUCCGACGAUCGCAAAUUGCCUGGUUGGCUGGAAUUGUCCAAGGCUGGGUGGUCCAAACUAAAAUACUAACAGGGGAUGAGGCAUCUGUAAGAGACUCCAACUUCGGAGGAGGUCUCAGGAGGGGGAAUCUCAACAGAGGAUUGAGCAUCA
B7: 9210573_9210693_1089_3pUTR_ENSG00000182831_ENST00000327827|human|control|control (ssRNA)
RNA: GGGAGUUCUACAGUCCGACGAUCGUUCCACCAUUGUCCAAGUGGAGUGCCAUUUCUUCUGAUAUGAAAGUGUUCAAAUCGACAUCAUGGAGUCCAUUUCUCCUUCGACUAGCAUUCGAUCCACUGCUUACAUGUGUAGGAGAGCAACAGAGGAUUGAGCAUCA
B8: 62926332_62928626_1961_CDS_ENSG00000061987_ENST00000546600|human|control|control (ssRNA)
RNA: GGGAGUUCUACAGUCCGACGAUCAACAAUUUCCUUAUCCAUUUGGUCUGAUGUUGACUGUAAAUCCUGCUGUUCUGUCGACUGUGUUGGUGAAGAACCUUCUUCAGUGGUGGUUUGACAUUCUGUUUCAAGCUCUCCUAGCUCCAACAGAGGAUUGAGCAUCA
B9: chr2:32086683:32086684:+_ENSMUSG00000039262_ENSMUST00000036691|mus_hu|motif|central (ssRNA)
RNA: GGGAGUUCUACAGUCCGACGAUCCAGAGGCUAGAGAUGGAAGGGAGCGGAGGGGCUGGCAAGAAACAUAUAAAAGUUCAGCGGUACACAUGGAGCUUGCGUUUUUGUUUUCUUUUCCUUUCCCCUUUGUAAAAACCUUGGCUACAACAGAGGAUUGAGCAUCA
B10: chr3:185641624:185641625:-_ENSG00000136527_ENST00000456380|hu_hu|FALSE|FALSE (ssRNA)
RNA: GGGAGUUCUACAGUCCGACGAUCGGCACGUUCUUUAGCUUCCUUGGCAUCAUCUACAUUUUCAAAAUAUACAAAGGCAAAUCCUCUUGAACGCCUAGACUGCUGGUCAUAUACAAUAGACACAUCGGCAAUGGGACCAUAUUUCAACAGAGGAUUGAGCAUCA
B11: chr19:8913615:8913616:-_ENSMUSG00000071658_ENSMUST00000096259|mus_hu|mus_mus_mus_hu_False|8_28 (ssRNA)
RNA: GGGAGUUCUACAGUCCGACGAUCAGGGUACCAAAACCUUCUGCCUGAAAUGGGUGCCCCACCCAGUAGGGAGUUGCAGCUGAAAGUAUCUGAUGCAGAAGCAGUGAAUGCAGAGAAGGAGGCCCCUGAUGCUCAGAAGGCCAGCAACAGAGGAUUGAGCAUCA
B12: chr7:75932113:75932114:+_ENSG00000106211_ENST00000248553|hu_hu|hu_hu_hu_mus_False|38_108 (ssRNA)
RNA: GGGAGUUCUACAGUCCGACGAUCCUGCGACCACUCCUCGGGCAACCGGGGCACCCCGAAAGCUUGAUCGAAGAGGCGGCUGUGUGCAGGGUACCAGCGGAAGGGGUGUUCCCAGCUCGGGCUCCGCAGCAGCGAGAAGGGCACCAACAGAGGAUUGAGCAUCA
B13: chr8:104447970:104447971:+_ENSG00000164934_ENST00000297579|hu_hu|hu_hu_hu_mus_False|88_108 (ssRNA)
RNA: GGGAGUUCUACAGUCCGACGAUCAUAUACCUCCCUGCUUCGGCUCUUGUCUACAGGAAAGAUUCUAAUAGACUUAUCAAAGCUGGCAGACACAAAUUCCUUCCCAGUGGGAGAGUAGUCCACAUCAAGUACUGCAGACACGUGCAACAGAGGAUUGAGCAUCA
B14: chr16:45382771:45382772:-_ENSMUSG00000022661_ENSMUST00000163230|mus_mus|mus_mus_mus_hu_True|1_8 (ssRNA)
RNA: GGGAGUUCUACAGUCCGACGAUCCUGGGUCAUGUUAUAAGACAAAUGGACAGGGAGGGCAUGCUUCUCAAAAAAUGUGAGCUAUUGUCUAAGACUAACAAUAUUUAUCUAGCUAUAAAAAUAAGUUUUAAAUGGACACAUUACCAACAGAGGAUUGAGCAUCA
B15: 21540635_21540755_4770_CDS_ENSMUSG00000021819_ENSMUST00000022358|mouse|control|control (ssRNA)
RNA: GGGAGUUCUACAGUCCGACGAUCGUAGGGGUGCAGGCCAGGGGAGUGGCCAUGCCCCAGUCCUGGACCUGGAUAUAAACUGGACCCCACUGAGAUGACCGGAACCACUGUGGCUGCUGCUGUCACUGCUGCCGCAGCCACUGUCAACAGAGGAUUGAGCAUCA
B16: chr14:22612544:22612545:+_ENSMUSG00000021770_ENSMUST00000119430|mus_hu|FALSE|FALSE (ssRNA)
RNA: GGGAGUUCUACAGUCCGACGAUCAAGCCAGGCAUCUAAGAACAACCUAGGGGGAGAACGCAAAGUUACUCAUUUUCAACAACUAUUAUAUAUUUAAUCACAAAUUCAUUAGAAAGAUAGUAUUCAUCCAAUUAGUCUUUUCAUCAACAGAGGAUUGAGCAUCA
B17: chr6:72385097:72385098:-_ENSMUSG00000053907_ENSMUST00000059472|mus_mus|FALSE|FALSE (ssRNA)
RNA: GGGAGUUCUACAGUCCGACGAUCCUGAGAAGUGCCAUAAUGGAAAAUGGAGAUCGACAAUGGAUGAGAAACUCCAAUAGCAUAAGAGACCUGAACAAGAACCCUCCUGCACAGACCUCCUUUAACAAGGGAUUUUGCCACCCACAACAGAGGAUUGAGCAUCA
B18: chr18:61067831:61067832:-_ENSG00000119541_ENST00000238497|hu_hu|FALSE|FALSE (ssRNA)
RNA: GGGAGUUCUACAGUCCGACGAUCAGAAACAAGAUCAGAGGAAGAUAUUGAAAAAAAUGUUGAGUUGUUGGCUUCUGUUGCUACAGCUUUGGCUAAGUAGGACUUUCCUGUUCCAGGCGGCCCAAAUAAUAGGAUUCCCCUCCACAACAGAGGAUUGAGCAUCA
B19: chr14:20710596:20710597:-_ENSMUSG00000043004_ENSMUST00000160013|mus_mus|motif|central (ssRNA)
RNA: GGGAGUUCUACAGUCCGACGAUCAUCCUGUCGAUGUUGGCUUCCAUCUUCAGCUGUUCUACCAGCUUCCUGGCUUGUGCGGUGCUGGCGGUGUUGUUGCUGGCCAUUGGAGCGUUGGAUGGGGUCUUCAGAGACUCUGGUCAGCAACAGAGGAUUGAGCAUCA
B20: chr4:106721038:106721039:+_ENSMUSG00000061887_ENSMUST00000030367|mus_hu|FALSE|FALSE (ssRNA)
RNA: GGGAGUUCUACAGUCCGACGAUCUCCUUUUUUUUUUUUUUUAAGAAGAAAGCAUAGAGGUUGAUUGGGGUGGGGGGCUUGCUAGAAGCUUCCAUUUAAAAAAAUUUUCCCCCAAAAAACCCCCCUGAAAACAAAUAAAAAAAUCAACAGAGGAUUGAGCAUCA
B21: chr11:47008823:47008824:+_ENSG00000149179_ENST00000278460|hu_mus|motif|central (ssRNA)
RNA: GGGAGUUCUACAGUCCGACGAUCUCCUUGGCAUACGCUGUUAAAAUAGUCAGUGAAGAACCGGGCAAUGCCAUACUGGCGGAUAUCCUCCCUGUUCUCCAGCAGCUGGCACACUGCAUCCUCCAUGUACGUGAGGACAUGUCUCAACAGAGGAUUGAGCAUCA
B22: chr10:33190432:33190433:-_ENSG00000150093_ENST00000302278|hu_mus|hu_hu_hu_mus_True|8_98 (ssRNA)
RNA: GGGAGUUCUACAGUCCGACGAUCUACAUUUUCCAAACCUGCACAUGAAUAAAACCCUGGCCACAGAGCCCCAAAACUACCCUACUGUGACUAAGAUGCUGCUGCUGUGAGCUUGGUGUUGCAAAAUUUUGCACGGGAGGAUUCCAACAGAGGAUUGAGCAUCA

The other results are listed elsewhere or left out.

In this assay the target is T1, UNK ZnF1-3. In words: nsRBNS (natural sequence RNA bind-n-seq); RBNS binding buffer (assumed for nsRBNS): 25 mM Tris pH 7.5, 150 mM KCl, 3 mM MgCl2, 0.01% Triton X-100, 500 ug/ml BSA, 20 U/ml SUPERase-In, 4 C; UNK is unkempt and MSI1 is Musashi-1; names of the RNAs are library labels; protein concentration not given here; high values mean tight binding.
Consider B1, for which the binding signal amounted to 1.28 enrichment R.
For B2, the binding signal is 2.39 enrichment R.
B3 returned a binding signal of 0.547 enrichment R.
Take B4: the binding signal turned out to be 0.996 enrichment R.
For B5, the binding signal was determined as 1.24 enrichment R.
With B6 the figure was 1.9 enrichment R.
Regarding B7, the binding signal was determined as 0.477 enrichment R.
Take B8: the binding signal came out at 0.365 enrichment R.
For B9, the binding signal was found to be 1.69 enrichment R.
Molecule B10 showed a binding signal of 1.42 enrichment R.
Molecule B11 displayed a binding signal of 1.15 enrichment R.
With B12 the figure was 1.08 enrichment R; with B13, 0.917 enrichment R.
The molecule B14 showed a binding signal of 2.72 enrichment R.
In turn, B15 displayed a binding signal of 0.644 enrichment R.
The molecule B16 registered a binding signal of 1.99 enrichment R.
B17: the binding signal worked out at 0.946 enrichment R.
B18 gave a binding signal of 2.05 enrichment R.
B19: the binding signal was determined as 0.418 enrichment R.
With B20 the figure was 0.973 enrichment R.
The molecule B21 came in with a binding signal of 0.645 enrichment R.
The molecule B22 showed a binding signal of 1.21 enrichment R.
